Measurements from PubChem BioAssay (NCATS).
“And” between values parts separate entries of the source, which are not always exact repeats. Identical values can stand only once. This list was built around the results that the source calls inconclusive (neither active nor inactive); the mix of calls is not that of the screen. For part of these data: A potency beside an inconclusive call is a rough fit, not a confirmed value. For part of these data: “Side channel” marks fits to a control or component signal instead of the main read-out. The source made the active and inactive calls. Unless noted, calls follow the shape of the dose curve; as a rule, active = well fitted curve in the direction sought with a large enough effect; inconclusive = small, poorly fitted or top-dose-only effect, or another doubt; inactive = no such curve, though single readings can be large; an effect the other way counts as inactive or inconclusive.

How the values were obtained:
[1] = qHTS to identify inhibitors of the type 1 interferon - major histocompatibility complex class I in skeletal muscle: primary screen against the NCATS Mechanism Interrogation Plate v5.0 (MIPE) Libary (AID 1347411); conditions: iHSKM cells + IFN-b, HiBiT-tagged MHC-I luminescence, 24 h; activity change, negative = inhibition: at 45.8 µM (top of the series); also: potency is read from the fitted curve at half-maximal effect; nearly all actives have a fitted effect of over 65% in size
Summary of the method: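 Immortalized human C25cl48 myoblasts with HiBit knocked into endogenous HLA-B*08:01 were stimulated with 4.0 ng/ml IFN-beta and exposed to compounds (11-point 1:3 titration, top 46 uM final) for 24 hrs at 37 C; HiBiT lytic luminescence measured.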

[2] = qHTS of pediatric cancer cell lines to identify multiple opportunities for drug repurposing: Confirmatory screen for NB1643 cells (AID 1347109); also: potency is read from the fitted curve at half-maximal effect; nearly all actives have a fitted effect of over 45% in size
Summary of the method: (§1)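 Cells (500-1,000/well) in growth media were settled 5 h at 37 degrees C, then given compounds for 48 h. Viability was read as CellTiter-Glo luminescence. Primary runs used MIPE at 11 points (0.78 nM-46 µM) and NPC at 8 points (0.59 nM-46 µM); follow-ups used 11 points.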

[3] = qHTS of pediatric cancer cell lines to identify multiple opportunities for drug repurposing: Confirmatory screen for BT-12 cells (AID 1347112); also: potency is read from the fitted curve at half-maximal effect; nearly all actives have a fitted effect of over 55% in size
Summary of the method: as §1

7G8 = test: qHTS profiling for inhibitors of Plasmodium falciparum proliferation (AID 504749); also: potency is read from the fitted curve at half-maximal effect; nearly all actives have a fitted effect of over 60% in size; conditions: P. falciparum in erythrocytes, SYBR Green DNA, 72 h; series mostly up to 28.7 µM
Summary of the method: (§2)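 P. falciparum-infected erythrocytes (0.3% parasitemia, 2.5% hematocrit final) were exposed to compounds for 72 h at 37 C in 5% CO2, then lysed with SYBR Green buffer overnight at room temperature; parasite DNA fluorescence was normalized to artemisinin and DMSO controls.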

[4] = qHTS of pediatric cancer cell lines to identify multiple opportunities for drug repurposing: Confirmatory screen for RD cells (AID 1347124); conditions: RD rhabdomyosarcoma cell viability; activity change, negative = cytotoxic: at 45.9 µM (top of the series);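 also: potency is read from the fitted curve at half-maximal effect; cells exposed to compound for 48 h before viability readout; nearly all actives have a fitted effect of over 65% in size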
Summary of the method: as §1

P94_40 = test: qHTS profiling for inhibitors of Plasmodium falciparum proliferation (AID 504749); also: potency is read from the fitted curve at half-maximal effect; nearly all actives have a fitted effect of over 60% in size; conditions: P. falciparum in erythrocytes, SYBR Green DNA, 72 h; series mostly up to 28.7 µM
Summary of the method: as §2

[5] = Cell Viability qHTS for small molecule stabilizers of the endoplasmic reticulum resident proteome (AID 1508629); conditions: cell viability counter-screen, 100 nM thapsigargin for final 4 h;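 also: compound exposure about 46 h in total before the viability read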; also: potency is read from the fitted curve at half-maximal effect;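 as to max response: human SH-SY5Y neuroblastoma cells carrying the GLuc-SERCaMP reporter; % is scaled to controls: 0 for no effect and ±100 for the full control effect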
[6] = test system: Zika virus NS2B-NS3 protease (unlinked complex); test: Confirmatory screen GU AMC qHTS for Zika virus inhibitors (AID 1347153); also: potency is read from the fitted curve at half-maximal effect; nearly all actives have a fitted effect of over 70% in size
Summary of the method: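 Unlinked enzyme 25 nM, Tris pH 8.0/0.01% Tween 20; cpd 15 min RT, dark; + AMC substrate 10 µM (Km 18.3 µM); 340/450 nm read at t0 and 15 min; % inhibition → 4-param fit.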

[7] = Tertiary RLuc qRT-PCR qHTS assay for Zika virus inhibitors (AID 1347169); also: potency is read from the fitted curve at half-maximal effect; nearly all actives have a fitted effect of over 55% in size
Summary of the method: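 Inhibition of ZIKV-RLuc replication in Vero cells, read as Renilla luminescence 1-1.5 hrs after live-cell substrate addition, following 48-72 hrs infection at MOI 1-2 in presence of compound.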

[8] = molecular target: Bile acid receptor (Homo sapiens) (UniProt Q96RI1); test: qHTS assay for small molecule agonists of farnesoid X receptor signaling (AID 588527; calls by dose curve;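 also: 0% = vehicle basal and 100% = reference agonist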); conditions: HEK293T FXR-UAS-bla, beta-lactamase ratio, 16 h; activation: hits give high values
Chain of UniProt Q96RI1 (Q96RI1 whole entry, looked up): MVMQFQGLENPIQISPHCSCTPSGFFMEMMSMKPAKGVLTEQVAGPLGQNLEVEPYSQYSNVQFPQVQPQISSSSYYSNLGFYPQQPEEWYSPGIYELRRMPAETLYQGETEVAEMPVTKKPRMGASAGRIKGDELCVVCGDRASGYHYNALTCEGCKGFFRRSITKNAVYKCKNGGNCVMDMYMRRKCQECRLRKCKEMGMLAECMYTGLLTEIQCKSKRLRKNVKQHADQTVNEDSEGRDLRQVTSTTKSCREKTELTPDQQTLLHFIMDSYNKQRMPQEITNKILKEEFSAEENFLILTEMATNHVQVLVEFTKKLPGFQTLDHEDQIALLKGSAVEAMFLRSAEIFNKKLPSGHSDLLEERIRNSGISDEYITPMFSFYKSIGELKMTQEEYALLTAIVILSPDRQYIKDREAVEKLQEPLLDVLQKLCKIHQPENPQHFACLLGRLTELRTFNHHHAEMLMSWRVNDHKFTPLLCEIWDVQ
Summary of the method: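 Quantitative HTS used FXR-UAS-bla HEK293T cells with 16 h compound incubation at 37 C. EC50 values came from concentration-response curves normalized to chenodeoxycholic acid.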

[9] = molecular target: Thyroid hormone receptor beta (Homo sapiens) (UniProt P10828); test: qHTS assay for small molecule agonists of thyroid hormone receptor beta signaling (AID 588545; calls by dose curve; also: potency is read from the fitted curve at half-maximal effect;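 as to activation: 0% = DMSO only and 100% = 10 nM T3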); conditions: TR-UAS-bla GripTite HEK 293, beta-lactamase ratio, agonist mode, 18 h; activation: at 76.7 µM, percent of T3 response, DMSO as zero
Chain of UniProt P10828 (P10828 whole entry, looked up): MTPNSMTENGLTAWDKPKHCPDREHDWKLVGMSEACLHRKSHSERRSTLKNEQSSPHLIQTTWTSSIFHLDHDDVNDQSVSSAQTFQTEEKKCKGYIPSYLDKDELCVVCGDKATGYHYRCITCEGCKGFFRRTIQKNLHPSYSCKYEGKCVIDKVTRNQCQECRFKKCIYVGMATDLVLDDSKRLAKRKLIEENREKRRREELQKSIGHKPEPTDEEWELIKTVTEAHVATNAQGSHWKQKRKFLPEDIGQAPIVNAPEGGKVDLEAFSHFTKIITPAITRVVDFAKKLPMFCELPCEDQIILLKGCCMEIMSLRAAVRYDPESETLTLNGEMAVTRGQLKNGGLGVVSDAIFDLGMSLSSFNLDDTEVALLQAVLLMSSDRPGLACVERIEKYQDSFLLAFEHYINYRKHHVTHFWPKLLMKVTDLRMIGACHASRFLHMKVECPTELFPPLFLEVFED
Summary of the method: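 TR-UAS-bla-GripTite HEK 293 cells in medium with 2% charcoal/dextran FBS, 0.1 mM NEAA and 1 mM sodium pyruvate were treated with titrated compounds for 18 hrs at 37 C. Beta-lactamase reporter was read with CCF4 dye (ex 405, em 460/530 nm); EC50 from Hill fits.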

Furin (Homo sapiens) = Furin (Homo sapiens) (UniProt P09958); test: Furin counterscreen qHTS for Zika virus inhibitors (AID 1347149); conditions: furin enzymatic counterscreen, fluorogenic substrate; activity change, negative = inhibition: at 57.5 µM (top of the series); also: potency is read from the fitted curve at half-maximal effect; nearly all actives have a fitted effect of over 70% in size
Chain of UniProt P09958 (P09958 whole entry, looked up): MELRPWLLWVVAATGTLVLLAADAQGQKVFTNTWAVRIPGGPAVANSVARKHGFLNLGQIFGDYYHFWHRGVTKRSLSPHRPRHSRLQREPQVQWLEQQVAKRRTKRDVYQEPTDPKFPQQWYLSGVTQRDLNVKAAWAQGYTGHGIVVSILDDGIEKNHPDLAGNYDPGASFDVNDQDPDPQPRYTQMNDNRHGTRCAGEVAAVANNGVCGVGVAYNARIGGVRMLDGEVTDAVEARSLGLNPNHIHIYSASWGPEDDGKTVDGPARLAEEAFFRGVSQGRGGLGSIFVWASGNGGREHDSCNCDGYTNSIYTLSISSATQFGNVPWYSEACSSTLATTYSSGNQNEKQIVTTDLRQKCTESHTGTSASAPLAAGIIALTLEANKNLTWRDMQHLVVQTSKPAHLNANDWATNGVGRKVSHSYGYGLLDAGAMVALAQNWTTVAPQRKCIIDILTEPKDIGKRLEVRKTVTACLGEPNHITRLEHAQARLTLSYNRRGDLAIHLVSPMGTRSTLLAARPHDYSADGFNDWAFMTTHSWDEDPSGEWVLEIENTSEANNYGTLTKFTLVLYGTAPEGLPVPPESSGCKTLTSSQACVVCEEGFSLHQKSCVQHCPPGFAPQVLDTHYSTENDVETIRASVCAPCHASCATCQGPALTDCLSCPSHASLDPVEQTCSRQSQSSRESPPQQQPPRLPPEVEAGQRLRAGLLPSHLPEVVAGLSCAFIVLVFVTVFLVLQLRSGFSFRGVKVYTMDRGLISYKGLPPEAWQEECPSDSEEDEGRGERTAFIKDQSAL
Summary of the method: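 Fluorogenic cleavage of BOC-RVRR-AMC (2 microM final, Km ~15 µM) was monitored (ex 340, em 450 nm) at 37C after 15 min RT preincubation of 5 nM furin with compounds in HEPES pH 7.0 buffer with CaCl2 and Triton X-100. Percent inhibition was fitted to a 4-parameter Hill curve.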

[10] = ZIKV-mCherry secondary qHTS for Zika virus inhibitors (AID 1347158); also: potency is read from the fitted curve at half-maximal effect; as to activity change, negative = inhibition: top concentration of the series differs between compounds
Summary of the method: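 Vero cells, 5,000/well, plated overnight at 37 °C, then compound added and infected with recombinant ZIKV-mCherry at MOI 1 for 48-72 h. PFA-fixed, Hoechst nuclear stain, high-content imaging; cells with mCherry intensity above 450 RFU scored infected, reported as percent infection.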

[11] = molecular target: Ubiquitin carboxyl-terminal hydrolase 1 (Homo sapiens) (UniProt O94782); test: Inhibitors of USP1/UAF1: Pilot qHTS (AID 504865);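 also: rhodamine fluorescence freed from ubiquitin-rhodamine substrate followed over time; potency is read from the fitted curve at half-maximal effect; nearly all actives have a fitted effect of over 35% in size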
Chain of UniProt O94782 (O94782 whole entry, looked up): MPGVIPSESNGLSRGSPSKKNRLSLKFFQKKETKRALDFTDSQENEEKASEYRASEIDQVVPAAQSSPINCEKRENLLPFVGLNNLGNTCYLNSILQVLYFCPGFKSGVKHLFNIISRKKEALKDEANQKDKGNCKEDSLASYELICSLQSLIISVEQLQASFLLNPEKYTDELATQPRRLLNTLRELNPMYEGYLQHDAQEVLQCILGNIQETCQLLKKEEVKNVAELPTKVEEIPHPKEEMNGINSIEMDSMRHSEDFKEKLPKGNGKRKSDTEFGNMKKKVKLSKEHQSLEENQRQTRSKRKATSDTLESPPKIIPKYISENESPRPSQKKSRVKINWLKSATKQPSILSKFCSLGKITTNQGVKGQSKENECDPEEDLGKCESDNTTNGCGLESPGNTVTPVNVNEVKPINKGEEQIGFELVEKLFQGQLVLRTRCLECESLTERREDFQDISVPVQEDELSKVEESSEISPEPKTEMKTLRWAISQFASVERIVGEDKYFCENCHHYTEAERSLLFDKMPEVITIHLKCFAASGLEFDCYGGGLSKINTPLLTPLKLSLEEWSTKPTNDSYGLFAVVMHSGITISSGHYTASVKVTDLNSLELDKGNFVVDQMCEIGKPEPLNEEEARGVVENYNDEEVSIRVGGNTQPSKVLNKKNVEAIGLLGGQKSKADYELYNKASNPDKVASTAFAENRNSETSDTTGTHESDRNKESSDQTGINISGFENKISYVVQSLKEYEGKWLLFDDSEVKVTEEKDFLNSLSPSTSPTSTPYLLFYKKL
Summary of the method: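 Enzyme-free wells gave the negative control, while test wells held 1nM USP1/UAF1 preincubated with compound for 15 min at room temperature. Ub-Rho at 150nM final started the reaction, and fluorescence at 480/540 nm was recorded kinetically.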

astro = test: Drug repurposing screens with cells derived from glioblastoma tumor samples (AID 1345199); conditions: viability, ATP luminescence, 48 h; activity, negative = cell killing: at 45.9 µM (top of the series); also: potency is read from the fitted curve at half-maximal effect; nearly all actives have a fitted effect of over 40% in size
Summary of the method: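 Four patient lines of CD133+ GBM neurospheres were screened at several concentrations; hits were retested in those lines plus three slower-growing GBM lines, using 48-hour treatment and ATP-based viability.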
Tags tell the direction and shape of the fitted curve.

With Cc1cc2c(cc1CC(=O)c1sccc1S(=O)(=O)Nc1onc(C)c1Cl)OCO2 the Potency [1] was inconclusive: 2.08 µM [inhibitor, full curve, poor fit].

For O=C(Oc1cccc2cccnc12)c1ccccc1, the Potency [2] was inconclusive: 16.5 µM [cytotoxic, partial curve, poor fit], the Potency [3] was active: 9.27 µM and the Potency (7G8) was inconclusive: 11.2 µM [inhibitor, single point].

In the case of CC[C@@]1(O)C(=O)OCc2c1cc1n(c2=O)Cc2c-1nc1ccccc1c2/C=N/OC(C)(C)C, the Potency [4] was inconclusive: 1.04 µM [cytotoxic, full curve, poor fit].

For NCc1ccccc1Sc1ccccc1CO, the Potency (P94_40) was inconclusive: 7.94 µM [inhibitor, partial curve, poor fit].

With CCOC(=O)N1CCC(Nc2ccc(Cl)cc2N)CC1 the max response [5] was inactive: -17.4%.

For Cc1onc(-c2ccccc2)c1C(=O)Cl, the Potency [5] was inconclusive: 0.178 µM [rising, full curve, poor fit].

For O=C(N/N=C/c1ccc(O)c(O)c1)c1cc2ccccc2cc1O, the Potency [6] was inconclusive: 13.1 µM [inhibitor, partial curve] and the Potency [7] was active: 6.18 µM.

In the case of O=C(O)Cc1cccc2ccccc12, the activation [8] was inactive: -0.869% and inactive: 1.54%, the Potency [9] was inconclusive: 44.7 µM [side channel, falling, partial curve, poor fit] and the activation [9] was inconclusive: -27.8%.

For CC1=C(C(=O)OCc2ccccc2)C(c2ccc(-c3ccccc3)cc2)NC(=O)N1CCCCCC(=O)O (stereo not given), the Potency (Furin (Homo sapiens)) was active: 39.3 µM, the Potency [10] was inconclusive: 15.8 µM [inhibitor, full curve] and the Potency [7] was active: 23.4 µM.

With O=C1OC(OC(=O)c2cccnc2Nc2cccc(C(F)(F)F)c2)c2ccccc21 (stereo not given) the Potency [11] was inconclusive: 15.8 µM [inhibitor, full curve].

With O=C(Oc1ccccc1)c1ccccc1O the activation [9] was inactive: -11.5% and inactive: -3.58%.

For Cc1cc(O)cc2c1O[C@](C)(CCC[C@H](C)CCC[C@H](C)CCCC(C)C)CC2, the Potency (astro) was inconclusive: 35.5 µM [inhibitor, single point].

For CCOc1ccc(-c2ccc(Cn3c(CC(C)(C)C(=O)O)c(SC(C)(C)C)c4cc(OCc5ccc(C)cn5)ccc43)cc2)cn1, the Potency (Furin (Homo sapiens)) was inconclusive: 7.64 µM [inhibitor, partial curve], the Potency [6] was inconclusive: 9.87 µM [inhibitor, full curve] and the Potency [10] was inconclusive: 10 µM [inhibitor, full curve, poor fit].

With O=C(O)CN1C(=O)c2cccc3cccc(c23)C1=O the Potency [2] was inconclusive: 5.22 µM [cytotoxic, partial curve, poor fit], the Potency [3] was inconclusive: 36.9 µM [cytotoxic, single point] and the Potency [4] was active: 3.69 µM. For the same molecule, the Potency (P94_40) was inconclusive: 14.1 µM [inhibitor, single point].

In the case of CC1(C)CC2=C3C=CC4C5(C)CCC(O)C(C)(C)C5CCC4(C)C3(C)CCC2(C)C(O)C1 (stereo not given), the Potency (Furin (Homo sapiens)) was inconclusive: 27.1 µM [inhibitor, partial curve], the Potency [6] was inconclusive: 21.5 µM [inhibitor, partial curve] and the Potency [10] was “inactive”. The Potency [7] was inconclusive: 12.8 µM [inhibitor, partial curve, poor fit].
